{
  "source": "the supplement of paper PMC12632987",
  "binders": {"B1": {"name": "GBRAP_11_2906 (protein)", "chain": "KKEKLKKAAKLAKEAAKLLKKLIEEGAEDEELWKKAKKALEELLKLAEEYLDESDVELAKEALELLEKAKEDPENAEKYLKEALAITRVLEGQILLAIEE"}, "B2": {"name": "GBRAP_160_4777 (protein)", "chain": "SEKIEELLKAIEEAEKRILEAIDELSPEETIVVARGEAGDILMLAFEANPDNDELEEALDEILDKLIEELEKAKDASPEEQKKIVKEHAKKMKETVKKLN"}, "B3": {"name": "GBRAP_9_7128 (protein)", "chain": "REELIEKLAEVVKDMIEDISKVVPSLTEEQKEEFLKRVEKLKEELLKDKTATPEEIAEKFKKLVREIRDEVKKIVNEEEAKLVDAISLTAEEEIDEIVEE"}, "B4": {"name": "GBRAP_137_3668 (protein)", "chain": "MIKVKIELEDGLAFAEVTIEGSKEELEKAAKIAEDIAGEIPNIAISVEITEDGKLKIDLFGTKEDIMEALKRLAKRLNKTVEVTEYNEETGEVTEFTITP"}, "B5": {"name": "GBRAP_128_3261 (protein)", "chain": "ANAEVVAQARAVVDQIKNSNAAEAQAIADAFMDWLLASSLEDAAQAVDVVESNLHKLTAEQLDILADAARKHLPLADPEKAELLAGLEVAALNEAEEKEE"}, "B6": {"name": "GBRAP_160_4690 (protein)", "chain": "SEKVEKAKKFIKEEFQEVVDLWPDVTPEELAAAVRVAFGNIKLELEELGLLTDEIDETIDKKEEEIVKAILENPNITKEELAKMLEEAAKEIEKKLEEAS"}, "B7": {"name": "GBRAP_160_4419 (protein)", "chain": "DELIEEVDELLDETEELVVELVEEGKREEAIAALRVGAGEILLLLDEDESVSEETEEKVDKILDETIKKFEENKDASPEEVRELLDKAREEILAVLKEGS"}, "B8": {"name": "GBRAP_184_5105 (protein)", "chain": "KVLVKEIEAETKEEAIEEAKKAIDEAAKQGAELILLLKLKNVSGEEIVEVIREIGEYAREAGIPRLTIGIENELDEETIDKAVKVADELGINLVLAIPDE"}, "B9": {"name": "GBRAP_186_5390 (protein)", "chain": "EEEEEEEEELLERLEEEYDIVIVVYLDEEDSLEEKKRTMERDVEAAAALARETGKRVAVLFRVTANEEELEELRAHAAELNERARAETGVAVALHGRLKP"}, "B10": {"name": "GBRAP_117_2567 (protein)", "chain": "SAEMEAHRAEVKALVDEASALIKARKAAPPEEQAALEAQLRDLIRTRTRELVERYGEDVTDELLEEELLSLDAEEYFTIELEREDAFAEIREEKEREERE"}, "B11": {"name": "GBRAP_184_5034 (protein)", "chain": "TVVERTIEAENLEELKAKVEALRAEVKGTGATLIVLAEIKNPTEEMVRALIEGLGAMRRAGDVSAVTLGFKEILSEELTDVALETGDKYGVRVVLPISDE"}, "B12": {"name": "GBRAP_160_4797 (protein)", "chain": "SERVEKVAELFREEAERAIEMAEGESHENRVNIFDVELGSAIMEAIEEGLLNDEEEDIAIEVRDKLIAELKANPDLTPEEIRALAEKAVKELEERLKELA"}, "B13": {"name": "GBRAP_128_3227 (protein)", "chain": "SAAEIAERVRALLAAIREAGPEEAAALARELAALVAAASVEEAEVAAEVIEELAPEMTEEQLDIMIDAFEAEARATDSPVALILRDIAIIFGEELLEKME"}, "B14": {"name": "GBRAP_78_6680 (protein)", "chain": "EVEEELDKAIEHLGKAASLLSKMKTEEALDILGEVIDAASTAEEARFGEADLKDLEEAKKKVEKALKEVKKIKTEEAKEVAKELEEAIKHLEKAIKLLKE"}, "B15": {"name": "GBRAP_184_5272 (protein)", "chain": "TVRHVEIEAETAEEAIAQVEAAAAEARAAGAKLRLTLLLKDASLEGVLRLLELLKELKDAGIIESATLELERLFSEEEIDQILAAADAAGVRVVLAIPDE"}, "B16": {"name": "GBRAP_83_6880 (protein)", "chain": "AEKITVAGPASRWEEIADAVIDLTKEEGYEVDVEVIATPEEIEKVLEMVKKLAEAGINTELLILGKGLTKEQAEELKKKIEEIAKKYGVDIKVEVILEEP"}, "B17": {"name": "GBRAP_160_4027 (protein)", "chain": "SEKIKEAMKFAKELFEEAEKLVEGQTAEQRAAIVAVTVGQIILEMTELGIDDDEVEDEIAKIGDEAVARILANPDLTEEEVKELIREAREKVLEALKKSE"}, "B18": {"name": "GBRAP_160_4075 (protein)", "chain": "SKETEELKKEIKEIAEEAIEFIKESNLENQIAIAEMMAGDILMLVFEAPFISDEDEERIDKILDKYVELLKENKDWSLEEKEEIIKEMAEEVIKEVEKAS"}, "B19": {"name": "GBRAP_184_5044 (protein)", "chain": "KIYERTIEAEDLEELKEKLEELEEEVKDFKGELIVLLKSPEFTEEMVKEALSRLKEMLEEGYVSSVTLGLDGKMSEEVIDLAIKLADEAGINLTIALEEE"}, "B20": {"name": "GBRAP_117_2596 (protein)", "chain": "SETEKKVEELVKELVEEIRKALEEMEELSEEEREELRKKLLERATEKVKEMLKLTDADTVEEFFAEALADLSPEDRVKAYIIFEEALAEAEDELEEEEEE"}, "B21": {"name": "GBRAP_160_4148 (protein)", "chain": "SEEIKKLIKEIKEIAEEALKLMEGETRENAKVIARVAFGEIVMLVFSNEAVSEETEEKVGEIARKAEEYLDANPDLTVEEIKEILKKAAEEVIKILEEEE"}, "B22": {"name": "GBRAP_122_2958 (protein)", "chain": "AAEEEALKAALAALEAAADKPLSEIVKTAMEALAKAKSEEAKKKIIEKAAEIISKKVPKVSKEEVLKILEEALKLMEEEGWTAAEAAAYADVEILDLEME"}, "B23": {"name": "GBRAP_166_4935 (protein)", "chain": "SLEKIYEETKKKVIELAKKALTADEEERIDLAIEIEELLKEAKEKGLTPEQLKEILLEALKELEEDPEVAEFLLRMILAASEMDEELQDVILEALEEFKK"}, "B24": {"name": "GBRAP_160_4855 (protein)", "chain": "SEKLERALKIIEEEREFALEAVAEAPASQRAAIAEAIALQAVYDLIEEGLITEELEEELLKIVDKLRKELEANADASVEEHKALVEKAFKEMEKKVKELS"}, "B25": {"name": "GBRAP_160_4122 (protein)", "chain": "KEKELKTAKDNAEDFEETLKEIESLSPEEAATLAEVTLGQAILDFSELDGKFEELEEFSEEKLDELRKTRKEDPEKLKEKSKELLTEARDYYEKKAKELE"}, "B26": {"name": "GBRAP_74_6516 (protein)", "chain": "QAELLAALEAAAAAGDARAVAELAREIIETGSLEAIERAARIVVAFVEKHRDTLSEEELELLAEVLAELADELMERGGDSEVILAVARAAYELEKLVQAR"}, "B27": {"name": "GBRAP_11_2891 (protein)", "chain": "KKEKLKKAAELAEELVRVLEELLEKGVDNEELREEALELAEELLELAKKELDEATKKDVEIILELVKKALEDPENAEEYVREALAAARVLEGDLLLELEE"}, "B28": {"name": "GBRAP_11_2851 (protein)", "chain": "EKEKLKKVKKLAEELIKALEALIAAGTTDEELWKEVEKKLEELKKAVKELGNEFLKELVEQAKEDLEEAKKNPETRLEHVNNALAFARALLGEVLLLLEE"}, "B29": {"name": "GBRAP_52_5928 (protein)", "chain": "MEERARALAREIFEAAVAGDRERLRALLRRVVEELGPEEIALVIEKLAEITIEAGPEHYDLFAEIMDLLEDEVEEAGKDVDEVQYAIAKAAGKLYDAEQA"}},
  "note": "Whole data set: some 4,500 sequences, median “median log2 fold change of GCK-ALFA target abundance (FLAG IP / Myc IP barcode read proportion)” near 0.078, cut for the lowest 2% near -0.6. This is one part of the list.",
  "data": [
    {"target": "GABARAP, O95166", "sequence (O95166 whole entry, the tested form may be a part)": "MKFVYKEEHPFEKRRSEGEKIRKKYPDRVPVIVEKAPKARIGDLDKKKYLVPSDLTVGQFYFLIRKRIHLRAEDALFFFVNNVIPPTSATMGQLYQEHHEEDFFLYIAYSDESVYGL", "experiment": "median log2 fold change of GCK-ALFA target abundance (FLAG IP / Myc IP barcode read proportion) (log2 ratio); each designed protein is fused to an ALFA-tag nanobody in HEK293 cells to bring the named protein to FLAG-tagged glucokinase (GCK); Myc marks an untargeted standard; higher = target protein stabilised (more abundant)", "settings": "target protein: 3xFLAG-MCP-GCK-ALFA reporter; HEK293 landing pad (RPLP)", "procedure,_shortened": "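Binders fused to an ALFA nanobody were recombined as a library into HEK293 landing-pad cells, which were induced with 2 μg mL^−1 doxycycline and then transfected to express a FLAG-tagged target and a Myc-tagged standard. After 48 h, circular RNA barcodes recovered by anti-FLAG and anti-Myc immunoprecipitation of lysates were reverse transcribed, amplified and sequenced. Each binder's target abundance is the median log2 ratio of FLAG to Myc barcode read proportions, from barcodes present at ≥10^−7 in both replicates, binders carrying ≥3 barcodes per replicate, a 10^−6 pseudocount and pooled replicates.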", "values": [
      {"binder": "B1", "median log2 fold change": 0.059},
      {"binder": "B2", "median log2 fold change": -0.0291},
      {"binder": "B3", "median log2 fold change": 0.384},
      {"binder": "B4", "median log2 fold change": 0.211},
      {"binder": "B5", "median log2 fold change": 0.255},
      {"binder": "B6", "median log2 fold change": 0.137},
      {"binder": "B7", "median log2 fold change": -0.0618},
      {"binder": "B8", "median log2 fold change": -0.00784},
      {"binder": "B9", "median log2 fold change": 0.154},
      {"binder": "B10", "median log2 fold change": 0.139},
      {"binder": "B11", "median log2 fold change": 0.176},
      {"binder": "B12", "median log2 fold change": 0.0551},
      {"binder": "B13", "median log2 fold change": -0.122},
      {"binder": "B14", "median log2 fold change": 0.17},
      {"binder": "B15", "median log2 fold change": 0.279},
      {"binder": "B16", "median log2 fold change": -0.0048},
      {"binder": "B17", "median log2 fold change": 0.302},
      {"binder": "B18", "median log2 fold change": -0.29},
      {"binder": "B19", "median log2 fold change": 0.181},
      {"binder": "B20", "median log2 fold change": 0.171},
      {"binder": "B21", "median log2 fold change": -0.132},
      {"binder": "B22", "median log2 fold change": 0.0664},
      {"binder": "B23", "median log2 fold change": 0.184},
      {"binder": "B24", "median log2 fold change": -0.374},
      {"binder": "B25", "median log2 fold change": 0.213},
      {"binder": "B26", "median log2 fold change": -0.0152},
      {"binder": "B27", "median log2 fold change": 0.326},
      {"binder": "B28", "median log2 fold change": 0.0512},
      {"binder": "B29", "median log2 fold change": -0.204}
    ]}
  ]
}
